The results in this text go back to paper PMC12820563.

The list shows a part of the results. The list includes weakly bound sequences.

In this experiment the target is T1, MBP-FoxP3dN (UniProt Q99JB6).
T1 sequence: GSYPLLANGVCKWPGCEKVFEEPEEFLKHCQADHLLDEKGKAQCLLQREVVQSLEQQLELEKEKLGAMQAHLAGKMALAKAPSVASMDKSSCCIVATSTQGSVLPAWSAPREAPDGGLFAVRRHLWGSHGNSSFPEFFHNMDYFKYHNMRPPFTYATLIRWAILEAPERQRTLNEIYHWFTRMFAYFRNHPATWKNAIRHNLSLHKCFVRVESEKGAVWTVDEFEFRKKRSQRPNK
Description: PD-seq (MBP pull-down with sequencing). As to conditions: 20 mM Tris-HCl pH 7.5, 100 mM NaCl, 1.5 mM MgCl2, 0.4 uM protein, 0.1 uM dsDNA library, 30 min, room temperature, amylose pull-down; high values mean tight binding; double strand, one strand shown.
As for “GATGATTGTTCTCCCAGCTGATGAATTTTCGATTTCGAGTAAACAAATTTTCCTAATCTTTCTGTTCAAGCGCCATCTAC”, the binding signal (RPM ratio (pull-down/input)) came to 0.398.
As for “GATGATTGTTCTCCCAGCTGATGAATTTGGCGTGTCGAGTAAACAAATTTTCCTAATCTTTCTGTTCAAGCGCCATCTAC”, the figure is 3.94; as for “GATGATTGTTCTCCCAGCTGATGAATTGCTACATTCGAGTAAACAAATTTTCCTAATCTTTCTGTTCAAGCGCCATCTAC”, 0.924.
“GATGATTGTTCTCCCAGCTGATGAATTGTCCACTTCGAGTAAACAAATTTTCCTAATCTTTCTGTTCAAGCGCCATCTAC”: the binding signal (RPM ratio (pull-down/input)) came out at 0.379.
For the sequence “GATGATTGTTCTCCCAGCTGATGAATTCACACCGTCGAGTAAACAAATTTTCCTAATCTTTCTGTTCAAGCGCCATCTAC”, the binding signal (RPM ratio (pull-down/input)) turned out to be 0.321.
In the case of “GATGATTGTTCTCCCAGCTGATGAATTAAAGTATTCGAGTAAACAAATTTTCCTAATCTTTCTGTTCAAGCGCCATCTAC”, the binding signal (RPM ratio (pull-down/input)) turned out to be 1.32.
For “GATGATTGTTCTCCCAGCTGATGAATTGCGCCAATCGAGTAAACAAATTTTCCTAATCTTTCTGTTCAAGCGCCATCTAC” the value was 1.33; for “GATGATTGTTCTCCCAGCTGATGAATTAAAGTCCTCGAGTAAACAAATTTTCCTAATCTTTCTGTTCAAGCGCCATCTAC”, 0.289.
With “GATGATTGTTCTCCCAGCTGATGAATTGCAGCTTTCGAGTAAACAAATTTTCCTAATCTTTCTGTTCAAGCGCCATCTAC”, the binding signal (RPM ratio (pull-down/input)) is 1.75.
As for “GATGATTGTTCTCCCAGCTGATGAATTGGACAGTTCGAGTAAACAAATTTTCCTAATCTTTCTGTTCAAGCGCCATCTAC”, the figure is 0.288.
For “GATGATTGTTCTCCCAGCTGATGAATTATAAACGTCGAGTAAACAAATTTTCCTAATCTTTCTGTTCAAGCGCCATCTAC” the value was 0.55.
In the case of “GATGATTGTTCTCCCAGCTGATGAATTGCGAAGTTCGAGTAAACAAATTTTCCTAATCTTTCTGTTCAAGCGCCATCTAC”, the binding signal (RPM ratio (pull-down/input)) stood at 0.614.
As for “GATGATTGTTCTCCCAGCTGATGAATTACGGTTGTCGAGTAAACAAATTTTCCTAATCTTTCTGTTCAAGCGCCATCTAC”, the binding signal (RPM ratio (pull-down/input)) was 1.4.
For “GATGATTGTTCTCCCAGCTGATGAATTCCAACTATCGAGTAAACAAATTTTCCTAATCTTTCTGTTCAAGCGCCATCTAC” the value was 0.47; for “GATGATTGTTCTCCCAGCTGATGAATTAGGACTTTCGAGTAAACAAATTTTCCTAATCTTTCTGTTCAAGCGCCATCTAC”, 1.03.
On to “GATGATTGTTCTCCCAGCTGATGAATTGATCCACTCGAGTAAACAAATTTTCCTAATCTTTCTGTTCAAGCGCCATCTAC”, for which the binding signal (RPM ratio (pull-down/input)) worked out at 0.379.
On to “GATGATTGTTCTCCCAGCTGATGAATTCCGCTGTTCGAGTAAACAAATTTTCCTAATCTTTCTGTTCAAGCGCCATCTAC”, for which the binding signal (RPM ratio (pull-down/input)) was 1.28.
As for “GATGATTGTTCTCCCAGCTGATGAATTAATAATATCGAGTAAACAAATTTTCCTAATCTTTCTGTTCAAGCGCCATCTAC”, the figure is 0.762.
Turning to “GATGATTGTTCTCCCAGCTGATGAATTTGCTTCGTCGAGTAAACAAATTTTCCTAATCTTTCTGTTCAAGCGCCATCTAC”, the binding signal (RPM ratio (pull-down/input)) amounted to 2.27.
Turning to “GATGATTGTTCTCCCAGCTGATGAATTCTCGGAGTCGAGTAAACAAATTTTCCTAATCTTTCTGTTCAAGCGCCATCTAC”, the binding signal (RPM ratio (pull-down/input)) came out at 0.176.
Turning to “GATGATTGTTCTCCCAGCTGATGAATTCGTCTACTCGAGTAAACAAATTTTCCTAATCTTTCTGTTCAAGCGCCATCTAC”, the binding signal (RPM ratio (pull-down/input)) was determined as 1.2.
As to “GATGATTGTTCTCCCAGCTGATGAATTAACCGGATCGAGTAAACAAATTTTCCTAATCTTTCTGTTCAAGCGCCATCTAC”, the binding signal (RPM ratio (pull-down/input)) was 0.179.
With “GATGATTGTTCTCCCAGCTGATGAATTGAACTGCTCGAGTAAACAAATTTTCCTAATCTTTCTGTTCAAGCGCCATCTAC”, the binding signal (RPM ratio (pull-down/input)) came out at 0.283.
For the sequence “GATGATTGTTCTCCCAGCTGATGAATTCATCCTATCGAGTAAACAAATTTTCCTAATCTTTCTGTTCAAGCGCCATCTAC”, the binding signal (RPM ratio (pull-down/input)) was determined as 0.461.
For “GATGATTGTTCTCCCAGCTGATGAATTTGGAACATCGAGTAAACAAATTTTCCTAATCTTTCTGTTCAAGCGCCATCTAC” the value was 0.503; for “GATGATTGTTCTCCCAGCTGATGAATTATGCCACTCGAGTAAACAAATTTTCCTAATCTTTCTGTTCAAGCGCCATCTAC”, 6.25.
As for “GATGATTGTTCTCCCAGCTGATGAATTTTACGATTCGAGTAAACAAATTTTCCTAATCTTTCTGTTCAAGCGCCATCTAC”, the figure is 0.308; as for “GATGATTGTTCTCCCAGCTGATGAATTCATTTGTTCGAGTAAACAAATTTTCCTAATCTTTCTGTTCAAGCGCCATCTAC”, 3.73.
With “GATGATTGTTCTCCCAGCTGATGAATTTGACAATTCGAGTAAACAAATTTTCCTAATCTTTCTGTTCAAGCGCCATCTAC”, the binding signal (RPM ratio (pull-down/input)) turned out to be 0.514.
For the sequence “GATGATTGTTCTCCCAGCTGATGAATTGAGCCCATCGAGTAAACAAATTTTCCTAATCTTTCTGTTCAAGCGCCATCTAC”, the binding signal (RPM ratio (pull-down/input)) was determined as 0.944.
For the sequence “GATGATTGTTCTCCCAGCTGATGAATTTGGAATGTCGAGTAAACAAATTTTCCTAATCTTTCTGTTCAAGCGCCATCTAC”, the binding signal (RPM ratio (pull-down/input)) is 0.649.
